Source: PubChem BioAssay AID651820 (National Center for Advancing Translational Sciences (NCATS), 2012)
Values joined by “and” are separate entries in the source; they are usually repeats but may differ in a detail not shown here. Identical values can stand only once. In all, about 340,000 compounds went through this assay and about 12,000 (3.5%) were called active. Inconclusive means that the source gave no clear call. Such entries were picked first, then a sample of the others. Calls come from the whole dose curve; as a rule, active = well fitted inhibition curve with a large enough effect; inconclusive = small, poorly fitted or top-dose-only effect, or another doubt; inactive = no such curve, though single readings can be large or run the other way. Where the call is inconclusive, the potency comes from a doubtful curve fit.

assay: qHTS Assay for Inhibitors of Hepatitis C Virus (HCV); details: Huh7.5.1 HCVcc-Cre (HCVcc is cell-culture hepatitis C virus) infection, luciferase reporter, 44 h; series mostly up to 41.8 µM
How it was run: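 HCVcc-Cre virus at an moi near 0.5 was added right after compound to cells cultured 4 h from seeding (1,000 cells/well). Luciferase activity was determined 44 h later, 15 min after substrate addition at RT.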
Potency is the fitted concentration of half-maximal effect; tags give direction and shape of the fitted curve.

Row | SMILES | Potency
1 | CC(C)(C)NC(=O)Nc1ccc(Br)cc1 | inconclusive: 31.6 µM [inhibitor, single point]
2 | N#Cc1ccccc1Cn1c(=O)n(Cc2ccc(C(=O)NCc3ccco3)cc2)c(=O)c2sccc21 | inconclusive: 31.6 µM [inhibitor, single point]
3 | CCc1ccc(C(=O)NNC(=O)C2CSC3(C)CCC(=O)N23)cc1 (centres undefined) | inactive
4 | COc1ccc(/C=N/NC(=S)Nc2ccccc2[N+](=O)[O-])cc1O | inconclusive: 31.6 µM [inhibitor, single point]
5 | COc1ccccc1C(=O)OCc1nc(N)nc(Nc2ccccc2C)n1 | inconclusive: 2.24 µM [inhibitor, full curve]
6 | O=C1CC(N2CCN(c3ccc(F)cc3)CC2)C(=O)N1Cc1ccc(N2CCCC2=O)cc1 (centres undefined) | inconclusive: 10 µM [inhibitor, partial curve]
7 | CCc1ccccc1NC(=O)CN(C)C(=O)COC(=O)c1c(Cl)cccc1Cl | inconclusive: 3.98 µM [inhibitor, full curve]
8 | CCc1ccc(-c2cc(C)no2)cc1S(=O)(=O)N1CCN(c2ccccn2)CC1 | inconclusive: 11.2 µM [inhibitor, partial curve]
9 | CC1=CC(C)(C)Nc2ccc(OC(=O)CN3C(=O)C4CCCCC4C3=O)cc21 (centres undefined) | active: 11.2 µM
10 | Cc1ccc(S(=O)(=O)N2CCN(C(=O)c3cc(S(=O)(=O)N4CCOCC4)c(Cl)cc3Cl)CC2)cc1 | inconclusive: 31.6 µM [inhibitor, single point]
11 | COc1ccc(/C=N/Nc2nonc2N)cc1OC | inactive
12 | CCOc1cc(C(=O)NCc2ccco2)cc(OCC)c1OCC | inconclusive: 1.58 µM [inhibitor, full curve]
13 | COc1ccc(N2Cc3ccccc3/C2=N\C(=O)Nc2ccccc2)cc1 | inconclusive: 11.2 µM [inhibitor, single point]
14 | Cc1ccccc1CN1C[C@@H]2C[C@@H](c3cn(C)nc3-c3ccccc3)N3CCC[C@@]23C1=O | inconclusive: 8.91 µM [inhibitor, partial curve, poor fit]
15 | COc1ccccc1Oc1ncnc2c1cnn2-c1ccccc1 | inconclusive: 1.78 µM [inhibitor, partial curve]
16 | COc1ccc(CCNC(=O)c2nnn(-c3cccc(C)c3)c2N)cc1OC | inconclusive: 2.24 µM [inhibitor, full curve]
17 | COc1ccc(Nc2nc(N)nc(CSc3nc(C)cc(C)n3)n2)cc1 | inconclusive: 10 µM [inhibitor, partial curve]
18 | Cc1ccc(-c2cc(C(=O)N/N=C/c3cccnc3)c3ccccc3n2)cc1C | inactive
19 | CCn1c(COc2ccccc2)nnc1SCC(=O)Nc1ccc2c(c1)OCCO2 | inactive
20 | Cc1cc(N2CCCC2)nc(-c2ccccc2O)n1 | active: 3.16 µM
21 | Cc1cc(C)cc(N(CC(=O)NC2CCCCC2)C(=O)c2csnn2)c1 | inconclusive: 2 µM [inhibitor, single point]
22 | Cc1ccc(N2C(N)=C(C#N)C(c3cccnc3)C3=C2CC(C)(C)CC3=O)cc1 (centres undefined) | inconclusive: 22.4 µM [inhibitor, single point]
23 | CC(=NNC(=O)CSc1nc2ccccc2o1)c1ccco1 | inconclusive: 3.55 µM [inhibitor, partial curve]

Row | SMILES | Potency
24 | CCCc1cc(C(N)=O)c(NC(=O)c2ccco2)s1 | inconclusive: 3.98 µM [inhibitor, partial curve]
25 | CCc1ccc(N=C2NC(=O)/C(=C/c3cc(OC)c(OC)c(OC)c3)S2)cc1 | inconclusive: 1.41 µM [inhibitor, partial curve]
26 | COc1cc(NC(=O)c2ccccc2)cc(OC)c1 | inconclusive: 31.6 µM [inhibitor, single point]
27 | COc1ccc(Oc2nc(-c3ccccc3)ncc2C(=O)O)cc1 | inactive
28 | COc1cc2c(cc1OC)CN(C(=O)c1ccc(S(=O)(=O)N3CCCCCC3)cc1)CC2 | inconclusive: 8.91 µM [inhibitor, partial curve]
29 | O=C(COC(=O)CNC(=O)C1CCCCC1)Nc1ccccc1OC(F)F | inactive
30 | CCc1nnc(NC(=O)c2ccc(Br)o2)s1 | inactive
31 | Cc1ccc(C(=O)N/C(=C\c2ccco2)C(=O)N2CC(C)OC(C)C2)cc1C (centres undefined) | inconclusive: 10 µM [inhibitor, partial curve]
32 | Cc1c(O)c(=O)ccn1C | inactive
33 | CC(=O)Oc1cc2c(c3ccccc13)CCC2=O | inconclusive: 28.2 µM [inhibitor, single point]
34 | CCN(Cc1nc2cc(Cl)ccc2c(=O)[nH]1)C(=O)c1nn(C)c(=O)c2ccccc12 | inactive
35 | O=C(c1cnn(C(=O)CN2CCCC2=O)c1)c1ccccc1O | inactive
36 | CC(NC(=O)NCC1CCCO1)(C(F)(F)F)C(F)(F)F (centres undefined) | inconclusive: 5.01 µM [inhibitor, single point]
37 | COc1ccccc1NS(=O)(=O)c1cc(NC(=O)c2ccncc2)ccc1N1CCOCC1 | inconclusive: 31.6 µM [inhibitor, single point]
38 | COc1ccccc1N/C(N)=N/c1nc(C(F)(F)F)cc(=O)[nH]1 | inconclusive: 10 µM [inhibitor, partial curve]
39 | COCCNC(=S)N1CCc2cc(OC)c(OC)cc2C1COc1ccc(C(C)C)cc1 (centres undefined) | inconclusive: 22.4 µM [inhibitor, single point]
40 | Nc1ccc2nc(SCC(=O)N3CCN(c4ccccc4)CC3)sc2c1 | inconclusive: 31.6 µM [inhibitor, single point]
41 | Cc1cccc(Nc2nnc(SCC(=O)Nc3ccccc3[N+](=O)[O-])s2)c1C | inconclusive: 31.6 µM [inhibitor, single point]
42 | CCOC(=O)c1ccc(NCc2nc3ccccc3n2C)cc1 | inactive
43 | O=C(Nc1cccc(-c2nc3ccccc3[nH]2)c1)c1ccc(C(=O)Nc2cccc(-c3nc4ccccc4[nH]3)c2)cc1 | inconclusive: 0.562 µM [inhibitor, full curve, poor fit]
44 | COc1cc(CNCCN2CCOCC2)ccc1OCc1ccc(Cl)cc1Cl | inconclusive: 10 µM [inhibitor, partial curve]
45 | Cc1ccc(-c2nc3sc4c(N)ncnc4c3c3c2CCCC3)cc1 | inconclusive: 7.94 µM [inhibitor, partial curve]
46 | C[C@]12c3[nH]c4ccc(Cl)cc4c3CCN1C(=O)[C@@H](CC(=O)NCCC1=CCCCC1)C[C@@H]2C(=O)N1CCOCC1 | active: 11.2 µM

Row | SMILES | Potency
47 | COc1cccc2oc3ccc(C#Cc4ccccn4)cc3c(=O)c12 | inactive
48 | COc1ccc2[nH]c(=O)c(CN(CC3CCCO3)C(=O)Nc3ccccc3)cc2c1 (centres undefined) | inconclusive: 12.6 µM [inhibitor, single point]
49 | O=C(CSc1nc(N2CCOCC2)nc(N2CCOCC2)n1)Nc1cccc(C(F)(F)F)c1 | inactive
50 | CC1CCN(S(=O)(=O)c2ccc(C(=O)Nc3nnc(C4CC4)o3)cc2)CC1 | inconclusive: 22.4 µM [inhibitor, single point]
51 | O=C(O)C1=C[C@H](c2ccc3c(c2)OCO3)C[C@H](OCCCCO)O1 | inconclusive: 5.62 µM [inhibitor, full curve, poor fit]
52 | CCC(C)Sc1nc2c(c(=O)[nH]c(=O)n2C)n1Cc1ccccc1Cl (centres undefined) | inactive
53 | CCN(Cc1ccncc1)C(=O)c1cc(COc2c(C)cccc2C)on1 | inconclusive: 22.4 µM [inhibitor, single point]
54 | COc1ccccc1CN(Cc1nc2ccccc2c(=O)[nH]1)S(=O)(=O)c1ccc2ccccc2c1 | active: 35.5 µM
55 | Cc1csc(NC(=O)c2cccc(Cn3nc(C)c(Br)c3C)c2)n1 | inconclusive: 35.5 µM [inhibitor, partial curve, poor fit]
56 | O=C(CNCCC1=CCCCC1)Nc1ccc(N2CCCCCC2)cc1 | inconclusive: 11.2 µM [inhibitor, single point]
57 | N#CCCn1cc(C(=O)N2CCCCC2)c(-c2cccc([N+](=O)[O-])c2)n1 | inactive
58 | CC(C)(C)Nc1ncnc2sc(-c3ccccc3)cc12 | inconclusive: 3.55 µM [inhibitor, full curve]
59 | Cc1cccc(C)c1OCC(O)CNS(=O)(=O)c1ccccc1C(=O)N1CCCCC1 (centres undefined) | inactive and inconclusive: 10 µM [inhibitor, single point]
60 | O=C(Cc1cccs1)Nc1nc2c(ccc3ccccc32)s1 | inconclusive: 22.4 µM [inhibitor, single point]
61 | Cc1ccc(N2CC(C(=O)Nc3ccc(S(=O)(=O)NCC4CCCO4)cc3)CC2=O)cc1 (centres undefined) | inconclusive: 31.6 µM [inhibitor, single point]
62 | COc1ccc(NC(=O)CCS(=O)(=O)c2ccc3c(c2)CCN3C(C)=O)cc1 | inactive
63 | O=C1NC2(CCCCC2)N(C(=O)c2ccccc2)C2=C1CCCC2 | active: 3.16 µM
64 | CCOC(=O)/C(C#N)=C/C=C1\C=Cc2ccccc2N1CC | inconclusive: 11.2 µM [inhibitor, partial curve]
65 | CCCCCCCCCCCCCCCCn1cc[n+](CC(C)=O)c1 | inconclusive: 31.6 µM [inhibitor, single point]
66 | O=C(Cc1ccc(Cl)cc1)Nc1ccc(Br)cc1 | inactive
67 | O=C(Nc1ccc(N2CCCCC2)c(C(=O)O)c1)c1ccco1 | inactive
68 | NC(=O)c1cc(S(=O)(=O)N2CCOCC2)ccc1Sc1ccccc1N | inactive
69 | O=C(COC(=O)c1ccc(O)cc1)c1ccc(S(=O)(=O)N2CCCCC2)cc1 | inconclusive: 22.4 µM [inhibitor, single point]
